Measured values taken from PMC9693575, “Isopropyl Amino Acid Esters Ionic Liquids as Vehicles for Non-Steroidal Anti-Inflammatory Drugs in Potential Topical Drug Delivery Systems with Antimicrobial Activity” (International Journal of Molecular Sciences, 2022).

Source text: This study aims to compare the influence of amino acid structure on the physicochemical properties of NSAID salts with the isopropyl ester of amino acids.

In the case of COc1ccc2cc([C@H](C)C(=O)O)ccc2c1.CSCC[C@H](N)C(=O)OC(C)C [[L-MetOiPr][NAP], L-methionine isopropyl ester naproxenate], the “Solubility in Water” value is reported as 3.011 ± 0.038 g dm^−3, the “Solubility in Water, as active substance” value is reported as 1.645 ± 0.038 gAS dm^−3 and the “Solubility in Phosphate Buffer pH = 5.4” value is reported as 1.509 ± 0.015 g dm^−3. The “Solubility in Phosphate Buffer pH = 5.4, as active substance” value was 0.824 ± 0.015 gAS dm^−3, the “Solubility in Phosphate Buffer pH = 7.4” value was 4.404 ± 0.033 g dm^−3 and the “Solubility in Phosphate Buffer pH = 7.4, as active substance” value was 2.405 ± 0.033 gAS dm^−3.
In the case of CC[C@H](C)[C@H](N)C(=O)OC(C)C.COc1ccc2cc([C@H](C)C(=O)O)ccc2c1 [[L-IleOiPr][NAP], L-isoleucine isopropyl ester naproxenate], the “Solubility in Water” value is reported as 5.048 ± 0.027 g dm^−3, the “Solubility in Water, as active substance” value is reported as 2.881 ± 0.027 gAS dm^−3 and the “Solubility in Phosphate Buffer pH = 5.4” value is reported as 3.206 ± 0.017 g dm^−3. For the same compound, the “Solubility in Phosphate Buffer pH = 5.4, as active substance” value was 1.829 ± 0.017 gAS dm^−3, the “Solubility in Phosphate Buffer pH = 7.4” value was 7.736 ± 0.030 g dm^−3 and the “Solubility in Phosphate Buffer pH = 7.4, as active substance” value was 4.415 ± 0.030 gAS dm^−3.
For CC(C)OC(=O)[C@@H](N)C(C)C.COc1ccc2cc([C@H](C)C(=O)O)ccc2c1 [[L-ValOiPr][NAP]], the “Solubility in Water” value was 3.988 ± 0.020 g dm^−3, the “Solubility in Water, as active substance” value was 2.358 ± 0.020 gAS dm^−3 and the “Solubility in Phosphate Buffer pH = 5.4” value was 2.323 ± 0.033 g dm^−3. For the same compound, the “Solubility in Phosphate Buffer pH = 5.4, as active substance” value was 1.320 ± 0.033 gAS dm^−3, the “Solubility in Phosphate Buffer pH = 7.4” value was 5.484 ± 0.012 g dm^−3 and the “Solubility in Phosphate Buffer pH = 7.4, as active substance” value was 3.241 ± 0.012 gAS dm^−3.
